From the supplement of paper PMC10126150
Sequences with one replicate were seen in a single cluster, so their values are uncertain.

System: ATP
Assay: switch fluorescence ratio, 500 uM ATP over buffer (Cy3 cluster intensity, sum of 5 cycles each) (fold (ratio)); higher = stronger signal-on switching upon ATP binding; sequences stand for … in TCGTCGGCAGCGTCAGATGTGTATAAGAGACAGTTTTTTTTTTTTTTTTTTTTTTTTT…TC
Details: aptamer strand: ATP DNA aptamer (quencher-CACCTGGGGGAGTATTGCGGAGGAAGG + anchor), 100 nM annealed; ATP concentration: 500 uM; one replicate
Procedure, shortened: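 Exposure to 500 uM ATP lasted 15 min at 22 °C before imaging, and a selection-buffer image was taken beforehand, for Cy3-labelled switching-strand clusters on a modified Illumina MiSeq flow-cell annealed to 100 nM quencher-labelled ATP aptamer. Five buffer/ATP cycles were run with NaOH stripping and re-annealing between them. The fluorescence ratio per cluster is summed target-cycle over summed buffer-cycle Cy3 intensity, averaged per switch-domain sequence. Clusters outside 100-1000 RFU were excluded.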

| Sequence | switch fluorescence ratio |
| --- | --- |
| ACCCCGGTTT | 1.01 |
| ACCCCTACT | 1.33 |
| ACCCGAATTA | 1.05 |
| ACCCGCACGT | 1.79 |
| ACCCGCTCTC | 3.28 |
| ACCCGTTTTT | 1.01 |
| ACCCTAGCTA | 1.11 |
| ACCCTGAGAC | 1.06 |
| ACCCTGCGGC | 1.11 |
| ACCCTGCGGG | 1.02 |
| ACCCTTGCAA | 2.25 |
| ACCCTTTTC | 1.1 |
| ACCGAACACT | 1.18 |
| ACCGAAGACA | 1.09 |
| ACCGAATAAC | 1.33 |
| ACCGAATCAT | 0.978 |
| ACCGACCGTC | 1.45 |
| ACCGACTAGT | 1.07 |
| ACCGAGTAGC | 1.04 |
| ACCGATCGTC | 1.09 |
| ACCGATCTAT | 1.03 |
| ACCGATGATA | 1.01 |
| ACCGCAACT | 4.26 |
| ACCGCCACTT | 1.3 |
| ACCGGAAGGT | 1.09 |
| ACCGGACATT | 1.18 |

| Sequence | switch fluorescence ratio |
| --- | --- |
| ACCGGAGCTG | 1.51 |
| ACCGGCGGAA | 1.09 |
| ACCGGCGTTC | 1.02 |
| ACCGGGATC | 1.13 |
| ACCGGGGGTG | 1.1 |
| ACCGGTATGC | 1.12 |
| ACCGGTCATT | 1.01 |
| ACCGGTCGTC | 1.04 |
| ACCGGTTCGT | 0.982 |
| ACCGTACTCG | 1.44 |
| ACCGTCAGCT | 1.02 |
| ACCGTCCTTG | 1.13 |
| ACCGTCTCAA | 1.05 |
| ACCGTTCCAT | 1.01 |
| ACCGTTGGTG | 0.998 |
| ACCGTTGTCT | 0.985 |
| ACCGTTTTCG | 1.02 |
| ACCTAACGGC | 1.34 |
| ACCTAACTTC | 1.2 |
| ACCTAATGG | 0.955 |
| ACCTACGAAC | 1.35 |
| ACCTAGTTGC | 1.05 |
| ACCTATAGTG | 1.01 |
| ACCTATGTTT | 0.999 |
| ACCTCAATAT | 1.47 |
| ACCTCCGTGG | 1.59 |

| Sequence | switch fluorescence ratio |
| --- | --- |
| ACCTCGTCTC | 1.08 |
| ACCTCGTGTA | 0.993 |
| ACCTGCCACG | 1.21 |
| ACCTGCGCAG | 1.1 |
| ACCTGGAGCA | 1.21 |
| ACCTGGTCAC | 1.03 |
| ACCTGGTGAC | 1.32 |
| ACCTGTGTTC | 1.01 |
| ACCTTCAGGA | 1 |
| ACCTTCGGAT | 1.22 |
| ACCTTGCATT | 1.1 |
| ACCTTGCGCT | 1.14 |
| ACCTTTAAGA | 1 |
| ACCTTTTGCT | 1.01 |
| ACCTTTTTTA | 1.01 |
| ACGAAAACGG | 1.07 |
| ACGAAGCAGT | 3.9 |
| ACGAAGGGCA | 1.03 |
| ACGAAGTGAC | 1.08 |
| ACGAATATGA | 1.07 |
| ACGAATGGAC | 1.11 |
| ACGAATGTAC | 1.05 |
| ACGAATTATA | 1.01 |
| ACGACAATCG | 0.987 |
| ACGACAGTGC | 1.19 |
| ACGACCAT | 1.25 |

| Sequence | switch fluorescence ratio |
| --- | --- |
| ACGAGCCCAC | 1.26 |
| ACGAGCGAAG | 0.944 |
| ACGAGCGGG | 0.978 |
| ACGAGGAGCG | 1.01 |
| ACGAGGATAG | 1.05 |
| ACGAGGTTAG | 0.98 |
| ACGAGGTTTG | 0.976 |
| ACGAGTCATT | 1.05 |
| ACGAGTCGGG | 1.07 |
| ACGATAGATA | 1.05 |
| ACGATCCCGA | 1.01 |
| ACGATGATGC | 1.21 |
| ACGATGGCAA | 3.25 |
| ACGATGTAAG | 1.01 |
| ACGATGTAAT | 1.16 |
| ACGCAACGCG | 1.01 |
| ACGCACTGCG | 1.06 |
| ACGCAGGTCC | 1.27 |
| ACGCATGTTT | 0.987 |
| ACGCCATCCC | 1.28 |
| ACGCCCAAAG | 1.17 |
| ACGCCCGTGG | 1.02 |
| ACGCCGACAC | 1.69 |
| ACGCCGAGGC | 0.976 |
| ACGCCGCAAA | 4.34 |
| ACGCCTCGTT | 1.05 |

| Sequence | switch fluorescence ratio |
| --- | --- |
| ACGCGAAGGT | 1.06 |
| ACGCGAGTAG | 1.03 |
| ACGCGATCA | 1.12 |
| ACGCGGTATG | 0.972 |
| ACGCGTGTTC | 1.07 |
| ACGCTAAGTA | 1.03 |
| ACGCTAGTAT | 1.02 |
| ACGCTATTTA | 1.12 |
| ACGCTCGGGG | 1.07 |
| ACGCTGCGGT | 1.04 |
| ACGCTTCTC | 1.44 |
| ACGCTTTTAT | 1.06 |
| ACGGAAATCT | 1.13 |
| ACGGACATAG | 0.993 |
| ACGGAGATTT | 1 |
| ACGGAGCCGC | 1.31 |
| ACGGATGGAG | 0.995 |
| ACGGCAATT | 1.4 |
| ACGGCATGCG | 1.02 |
| ACGGCATTAG | 1.11 |
| ACGGCCAGTG | 1.09 |
| ACGGCCCACA | 1.21 |
| ACGGCGATGG | 1.1 |
| ACGGCGTAAG | 0.99 |
| ACGGGAAGCG | 1.02 |
| ACGGGATCCA | 1.05 |

| Sequence | switch fluorescence ratio |
| --- | --- |
| ACGGGATGGA | 1.05 |
| ACGGGCCCGC | 1.03 |
| ACGGGTACA | 1.19 |
| ACGGGTAGAT | 1.02 |
| ACGGGTTCAG | 1.03 |
| ACGGTCCTGA | 0.972 |
| ACGGTGAAAT | 1.03 |
| ACGGTGCATA | 1.12 |
| ACGGTGTGAC | 1.01 |
| ACGGTGTGAG | 0.994 |
| ACGGTGTGGA | 0.999 |
| ACGGTTAATC | 1.02 |
| ACGGTTGTCT | 1.08 |
| ACGTAATTCT | 1.24 |
| ACGTACATG | 1.57 |
| ACGTACCTCC | 1.49 |
| ACGTACTTTG | 1.47 |
| ACGTAGTATT | 0.978 |
| ACGTCATTTT | 1.11 |
| ACGTCCAGGC | 1.07 |
| ACGTCCAGGT | 1.7 |
| ACGTCCGGA | 0.96 |
| ACGTCCGTGC | 1.18 |
| ACGTCGTCGT | 1 |
| ACGTCTCAA | 0.977 |
| ACGTCTTCAG | 1.04 |

| Sequence | switch fluorescence ratio |
| --- | --- |
| ACGTGATCAG | 1.02 |
| ACGTGCTTCA | 1.06 |
| ACGTGGCCTG | 0.998 |
| ACGTGGCGA | 1.03 |
| ACGTGTAGTG | 1.03 |
| ACGTGTCCTG | 1.02 |
| ACGTGTTTAA | 1.03 |
| ACGTTACAGT | 1.54 |
| ACGTTAGGAA | 0.989 |
| ACGTTATT | 1.19 |
| ACGTTATTCG | 1.03 |
| ACGTTCAGTC | 1.04 |
| ACGTTCGATT | 0.979 |
| ACGTTGACAT | 1.28 |
| ACGTTGGGAG | 0.97 |
| ACGTTGTGGC | 1.03 |
| ACGTTTTGGA | 0.971 |
| ACGTTTTTCG | 0.989 |
| ACTAAAACAG | 1.08 |
| ACTAAATGA | 1.01 |
| ACTAAATTTA | 0.991 |
| ACTAACAAGC | 1.09 |
| ACTAACTAAA | 1.1 |
| ACTAAGAGCA | 1.04 |
| ACTAAGTGCG | 1.08 |
| ACTAAGTGGT | 1.04 |

| Sequence | switch fluorescence ratio |
| --- | --- |
| ACTAATATTT | 1.01 |
| ACTAATCT | 1.04 |
| ACTAATGGCA | 1.01 |
| ACTACAAGA | 1.04 |
| ACTACACCCC | 1.39 |
| ACTACCCGGA | 1.04 |
| ACTACCTAAG | 1.11 |
| ACTACCTCG | 1.13 |
| ACTACGTACT | 1.78 |
| ACTACGTAGT | 1.01 |
| ACTACGTATC | 1.42 |
| ACTACTATGG | 1.03 |
| ACTACTCATC | 1.1 |
| ACTACTCGGA | 1 |
| ACTACTTGAA | 1.03 |
| ACTAGACAGT | 1.02 |
| ACTAGACTCA | 1.1 |
| ACTAGAGCAT | 1.1 |
| ACTAGCCCGT | 0.987 |
